Data on three compounds can be found in patent US11542275B2, “Substituted imidazolidin-2-one derivatives as PRMT5 inhibitors” (Aurigene Discovery Technologies Limited, priority 2018, dated 2023).

The target of the assay is PRMT5/MEP50 Complex (Homo sapiens (Human), UniProt O14744). Kind of assay: PRMT5 inhibition based on TR-FRET assay. The format is biochemical. Particulars: 32 nM PRMT5:MEP50 complex, 50 nM Histone-H4 peptide, 1 μM SAM, 90 minutes at room temperature. The source says:
Protein arginine methyltransferase 5 (PRMT5) is a type II arginine methyltransferase that catalyze mono- and symmetric demethylation on arginine residues of histone or non-histone proteins in presence of S-adenosylmethionine (AdoMet or SAM) a cofactor responsible for donating the methyl group. PRMT5 is reported to be overexpressed in several human cancers. To identify compounds that inhibit the PRMT5 and decrease its activity, a TR-FRET based assay has been established. Time-resolved fluorescence resonance energy transfer (TR-FRET) HTS assays are homogeneous proximity assays where the interaction of two dye-labeled binding partners is detected by the energy transfer between a donor and an acceptor dye, and the subsequent light emission by the acceptor dye. PRMT5 catalyzes Histone H4 peptide which is biotin tagged to the Lysine amino acid at carboxyl end, in presence of S-adenosyl-1-methionine (SAM) to methylate the peptide. The antibody specific to mono methylated H4 peptide (H4R3) with Ig conjugate binds to the methylated peptide, indirectly binding to the Europium lanthanide. SureLight Allophycocyanin-Streptavidin binds to the biotin tag of the peptide, therefore accepting the energy transferred from the Europium lanthanide. This energy transfer between Europium to SureLight Allophycocyanin is a direct measure of the activity/inhibition of the PRMT5 enzyme.
Assay buffer: 20 mM BICINE (pH 7.6), 25 mM NaCl, 2 mM DTT, 0.01% Tween-20 and 0.01% BSA.
The compound dilutions were prepared as 7.5% DMSO stock solutions in assay buffer. To 2 μL (7.5×) of test compound, 5 μL of PRMT5 enzyme prepared in assay buffer (Final concentration of 32 nM in 15 μL reaction volume) was added and allowed for 30 minutes pre-incubation time in a white polystyrene 384-well plate at room temperature. […] The plates were then read on Victor-3 with Excitation at 340 nm and Emissions collected at 615 and 665 nm in TR-FRET protocol. […]
For orientation: In TR-FRET formats the signal depends on donor and acceptor labels being close together.

What is called IC50 is the concentration that gives 50% inhibition. Higher therefore signals weaker potency in that assay.

The compound `O=C1N(Cc2ccc(C3CCOCC3)nn2)CCN1C[C@H](O)CN1CCc2ccccc2C1` [Compound 51, (R)-1-(3-(3,4-dihydroisoquinolin-2(1H)-yl)-2-hydroxypropyl)-3-((6-(tetrahydro-2H-pyran-4-yl)pyridazin-3-yl)methyl)imidazolidin-2-one] registered an IC50 of 66 nM. This counts as double-digit nanomolar. In the case of `CC1(C(=O)N2CCC(c3ccc(CN4CCN(C[C@H](O)CN5CCc6ccccc6C5)C4=O)nc3)CC2)COC1` [Compound 53, (R)-1-(3-(3,4-dihydroisoquinolin-2(1H)-yl)-2-hydroxypropyl)-3-((5-(1-(3-methyloxetane-3-carbonyl)piperidin-4-yl)pyridin-2-yl)methyl)imidazolidin-2-one] it was 18 nM. In the case of `N#Cc1ncc(-c2ccnc(CN3CCN(C[C@H](O)CN4CCc5ccccc5C4)C3=O)c2)cn1` [Compound 54, (R)-5-(2-((3-(3-(3,4-dihydroisoquinolin-2(1H)-yl)-2-hydroxypropyl)-2-oxoimidazolidin-1-yl)methyl)pyridin-4-yl)pyrimidine-2-carbonitrile] it was 70 nM.
